About 550 (1.1%) of roughly 48,000 compounds were called active. Inconclusive results (about 4%) are left out. No stated cut-off is given here; in the data, active means potency below about 15 µM; inconclusive means mostly about 16 µM to 33 µM; inactive means weaker than that. Some of the results follow. Where only a bound is given, the exact number is not on record here.
Potency means the concentration at half of the fitted maximal effect.

Chain of UniProt P04062 (P04062 whole entry, looked up): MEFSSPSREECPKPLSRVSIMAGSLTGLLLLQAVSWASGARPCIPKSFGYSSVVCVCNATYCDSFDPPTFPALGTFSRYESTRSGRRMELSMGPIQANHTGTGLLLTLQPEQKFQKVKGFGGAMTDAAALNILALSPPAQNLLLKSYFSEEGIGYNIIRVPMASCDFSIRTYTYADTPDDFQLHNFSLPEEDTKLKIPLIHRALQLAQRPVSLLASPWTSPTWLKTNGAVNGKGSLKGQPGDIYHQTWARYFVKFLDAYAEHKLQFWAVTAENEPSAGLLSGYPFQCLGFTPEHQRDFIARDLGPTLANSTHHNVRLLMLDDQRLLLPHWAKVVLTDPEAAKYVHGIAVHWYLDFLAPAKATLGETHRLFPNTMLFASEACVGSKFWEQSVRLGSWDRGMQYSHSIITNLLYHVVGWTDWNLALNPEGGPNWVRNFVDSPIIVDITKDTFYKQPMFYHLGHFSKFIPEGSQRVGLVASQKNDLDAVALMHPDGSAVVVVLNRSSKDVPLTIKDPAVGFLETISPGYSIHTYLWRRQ

The target in this assay is Lysosomal acid glucosylceramidase (Homo sapiens) (UniProt P04062). Kind of assay: Glucocerebrosidase.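 Further: the screen sought inhibitors.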 As to conditions: purified enzyme, resorufin glucoside fluorescence (screen aimed at inhibitors), 20 min. The gist of the method:
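Normal human glucocerebrosidase (0.2 nM final) was assayed with resorufin β-D-glucopyranoside (30 uM final) in 50mM citric acid/KH2PO4, 10mM sodium taurocholate, 0.01% tween-20, pH 5.9. Compounds were titrated; fluorescence (Ex 548, Em 600) read after 20 min at RT.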
For `CC(=O)N1CCCc2cc(S(=O)(=O)NCc3ccc(C)cc3)ccc21`, the Potency is inactive: > 76.9 µM. Then `COc1cc(S(=O)(=O)Nc2ncccc2C)c(OC)cc1Cl`, with inactive: > 76.9 µM; and `CCCCn1nnnc1SCC(=O)N1CCN(C(=O)c2ccco2)CC1`, with inactive: > 76.9 µM. As to `Cc1cccc2cc3c(N)c(C(=O)N4CCOCC4)sc3nc12`, the Potency was inactive: > 76.9 µM. With `CN(C(=O)C1CCOC1)c1nnc(-c2ccncc2)s1` (centres undefined), the Potency was inactive: > 76.9 µM. `Nc1ncnc2c1ncn2CCOc1ccccc1`: the Potency is inactive: > 76.9 µM.

`O=C(CSc1ccc2c(c1)OCCO2)NCC1CCCO1` (centres undefined): the Potency was inactive: > 76.9 µM.

Regarding `COCCn1nnnc1C(c1ccc(C)cc1)N1CCN(Cc2ccc3c(c2)OCO3)CC1` (centres undefined), the Potency is inactive: > 76.9 µM. Take `O=C1NC(=O)C2(COC3(CCCC3)OC2)S1`: the Potency is inactive: > 76.9 µM. Then `O=C(Sc1nnnn1C1CCCCC1)c1cccs1`, with inactive: > 76.9 µM. Turning to `COC(=O)c1[nH]c2cccc(OC)c2c1NC(=O)CN1CC2(C)CC1CC(C)(C)C2` (centres undefined), the Potency is inactive: > 76.9 µM.

For the molecule `O=C(CN1CCC(n2nnc3ccccc32)CC1)NCc1cccs1`, the Potency is inactive: > 76.9 µM. In the case of `CCCCCN(C(=O)NC(=O)NC(C)CC)S(C)(=O)=O` (centres undefined), the Potency is inactive: > 76.9 µM. Then `O=C(c1ccccc1)c1ccncc1`, with inactive: > 76.9 µM.

Consider `CCn1cc(C(=O)NCC(=O)OC)c2cc(OC)c(OC)cc2c1=O`, for which the Potency is inactive: > 76.9 µM. The result for `CC(C)(C)NC(=O)CSc1nncn1NCc1ccccc1` reads inactive: > 76.9 µM. Then `Cc1cccc(NS(=O)(=O)c2cc(C(=O)OCC(=O)Nc3cc(C)on3)ccc2C)c1`, with “inactive”; and `Brc1ccccc1-c1nnc2sc(-c3ccc4c(c3)OCCO4)nn12`, with inactive: > 76.9 µM; and `O=c1c2cnn(-c3ccc(F)cc3)c2ncn1Cc1cccnc1`, with inactive: > 76.9 µM. As for `Cc1ccc(C)c(N2CCN(C(=O)CC3Sc4ccccc4NC3=O)CC2)c1` (centres undefined), the Potency is inactive: > 76.9 µM.

Consider `CCOc1ccccc1-c1nc(-c2ccc(NC(=O)Cc3ccccc3OC)cc2)no1`, for which the Potency is inactive: > 76.9 µM. The result for `CCOc1ccc(NC(=O)c2ccccc2NC(=O)CN2CCN(C(C)=O)CC2)cc1` reads inactive: > 76.9 µM. The result for `CSCC[C@H](NC(=O)Nc1ccc(C)cc1C)C(=O)O` reads inactive: > 76.9 µM. Consider `Cc1cc(C(=O)NCc2ccc(S(N)(=O)=O)cc2)c(C)o1`, for which the Potency was inactive: > 76.9 µM. For `Cc1ccc(CNC(=O)C(OC(=O)c2ccco2)C(C)C)cc1` (centres undefined), the Potency is inactive: > 76.9 µM. For the molecule `Cc1ccc(CN2C(=O)CCC2C(=O)NC(C)C)cc1` (centres undefined), the Potency was inactive: > 76.9 µM. As to `CCN(CC)C(=O)CSc1nc(O)cc(=O)n1C`, the Potency was inactive: > 76.9 µM.

For the molecule `Cc1occc1-c1nnc(SCC(=O)Nc2ccc(F)cc2)n1Cc1ccccc1`, the Potency result is “inactive”.

Turning to `COCCN(CC(=O)NCc1ccccc1)C(=O)CCC(=O)Nc1nccs1`, the Potency is inactive: > 76.9 µM. On to `CCOC(=O)c1oc2ccc(S(=O)(=O)N3CCC(C)CC3)cc2c1C`, for which the Potency was inactive: > 76.9 µM.

In the case of `Cc1noc(C)c1C(=O)OCC(=O)NC(=O)NC12CC3CC(CC(C3)C1)C2`, the Potency is inactive: > 76.9 µM. As to `COC(=O)COc1ccc(S(=O)(=O)NCCC2=CCCCC2)cc1C`, the Potency was inactive: > 76.9 µM.

With `CCN1C(=O)C2C(c3ccc(O)c(OC)c3)NC(C)(C(=O)OC)C2C1=O` (centres undefined), the Potency is inactive: > 76.9 µM. Turning to `O=C(Nn1c(-c2ccccc2)nc2ccccc2c1=O)C1CCC1`, the Potency was inactive: > 76.9 µM.

Regarding `O=C(CSc1nc2ccccc2[nH]1)Nc1ccc2c(c1)OCCO2`, the Potency was inactive: > 76.9 µM.

`CCN1C(=O)CC(C(=O)Nc2ccc(F)cc2)SC1=Nc1cccc(OC)c1` (centres undefined): the Potency result was “inactive”. The result for `Cc1n[nH]c(C)c1S(=O)(=O)N1CCCC(C(=O)NCC2COc3ccccc3O2)C1` (centres undefined) reads inactive: > 76.9 µM. Turning to `O=C(Nc1nnc(C2CCCC2)s1)C1CCC1`, the Potency was inactive: > 76.9 µM. In the case of `Cc1cc2cc(CCNC(=O)c3ccc(S(=O)(=O)N4CCOCC4)cc3)c(=O)[nH]c2cc1C`, the Potency was inactive: > 76.9 µM. With `O=C1C=C(NCc2ccco2)CCC1`, the Potency is inactive: > 76.9 µM. For the molecule `CC(=O)NC(c1ccccc1)c1nc2ccccc2[nH]1` (centres undefined), the Potency is inactive: > 76.9 µM. `C=CCOC(=O)C(C#N)c1nc2ccccc2nc1N1CCCC1` (centres undefined): the Potency is inactive: > 76.9 µM. Regarding `CCCCn1ccnc1C(=O)c1ccc(S(=O)(=O)N(CCOC)CCOC)cc1`, the Potency is inactive: > 76.9 µM. In the case of `O=C(CCS(=O)(=O)c1ccc(Cl)cc1)N1CCN(c2ccccc2F)CC1`, the Potency was inactive: > 76.9 µM. Take `COc1cccc(NC(=O)Cc2c(O)c3ccccc3[nH]c2=O)c1`: the Potency was inactive: > 76.9 µM.

As to `CCN1CCc2nc(NC(=O)Cc3ccc4c(c3)OCCO4)sc2C1`, the Potency is inactive: > 76.9 µM. As for `O=C(Cn1cnc2c(cnn2-c2ccc(F)cc2)c1=O)N1CCN(c2ccccc2F)CC1`, the Potency was inactive: > 76.9 µM. The result for `O=C1CN(c2ccccc2F)C(=O)CN1c1ccccc1F` reads inactive: > 76.9 µM; that for `O=C(CN1CCC(C(=O)c2ccc(F)cc2)CC1)Nc1ccccc1`, inactive: > 76.9 µM. In the case of `Cc1c(C(=O)N2CCCC2)sc(NC(=O)c2cccs2)c1C#N`, the Potency was inactive: > 76.9 µM.

Regarding `Cc1cc(-c2nsc(=O)o2)c(S(C)(=O)=O)s1`, the Potency is inactive: > 76.9 µM. Regarding `CCCCC1(CC)C(=O)NC(=O)NC1=Nc1ccc(OC)cc1` (centres undefined), the Potency is inactive: > 76.9 µM.

For the molecule `CCCn1c(CCc2ccccc2)nnc1SCC(=O)N1CCCC1`, the Potency was inactive: > 76.9 µM.

On to `CCOc1ccc(-c2nn[nH]n2)cc1`, for which the Potency is inactive: > 76.9 µM. Regarding `Cc1ccc(-n2c(C)c3c(C)nnc(C)c3c2C)cc1`, the Potency was inactive: > 76.9 µM. In the case of `COc1ccc(OCCCC(=O)Nc2nncs2)cc1`, the Potency was inactive: > 76.9 µM. `CCN(CC)C(=O)C1CCC(C)(C(=O)O)C1(C)C` (centres undefined): the Potency was inactive: > 76.9 µM.

As for `O=C(Cc1cn2ccsc2n1)Nc1nc2c(s1)CCCC2`, the Potency was inactive: > 76.9 µM. `O=C(CSc1nc2cccnc2n1Cc1ccccc1)NCc1ccco1`: the Potency is inactive: > 76.9 µM. `COc1cccc(CNc2ccc(S(=O)(=O)Nc3nccs3)cc2)c1O`: the Potency is inactive: > 76.9 µM. Then `Cc1cc(NC(=O)CSc2nccn2-c2ccc(F)cc2)no1`, with inactive: > 76.9 µM.

As to `CCCCCOC(=O)C1=C(C)Nc2nnnn2C1c1ccc(OC)c(OC)c1OC` (centres undefined), the Potency is inactive: > 76.9 µM.

In the case of `O=C(NC1CC2CCC1C2)C1COc2ccccc2O1` (centres undefined), the Potency was inactive: > 76.9 µM. Take `O=C(N1CCOCC1)N1CCN(CC(O)COc2ccc3ccccc3c2)CC1` (centres undefined): the Potency was inactive: > 76.9 µM. Consider `Cc1nc2ccccc2n1CCC(=O)Nc1cccc(F)c1`, for which the Potency was inactive: > 76.9 µM. For the molecule `CCOC(=O)c1ccc(NC(=O)c2c(C)[nH]c(C(=O)OCC)c2C)cc1`, the Potency is inactive: > 76.9 µM.

For the molecule `COc1ccc(NC2c3ncccc3C(=O)N2Cc2ccccc2)c(OC)c1` (centres undefined), the Potency is inactive: > 76.9 µM. On to `CCC(OC(=O)c1cccs1)C(=O)NC1CCCCC1` (centres undefined), for which the Potency is inactive: > 76.9 µM.

`O=C1NCCCC1C(=O)N1CCN(C(=O)C2CCCNC2=O)CC1` (centres undefined): the Potency is inactive: > 76.9 µM. As to `CCC12CN(C(=O)c3ccc(OC)cc3)CC(CC)(CN(C(=O)c3ccc(OC)cc3)C1)C2=O`, the Potency is inactive: > 76.9 µM. `COc1ccccc1NC(=O)CSc1nnc(Cc2cccn2C)n1CCc1ccccc1`: the Potency is inactive: > 76.9 µM.

Take `O=C(CN1CCN(c2ccc(F)cc2)CC1)Nc1cccc(C(F)(F)F)c1`: the Potency was inactive: > 76.9 µM. Then `O=C(C1CCN(S(=O)(=O)N2CCOCC2)CC1)N1CCc2ccccc21`, with inactive: > 76.9 µM; and `CCOc1cc(C(=O)NCC2CCCO2)cc(OCC)c1OCC` (centres undefined), with inactive: > 76.9 µM; and `C=CCn1c(Sc2nncn2C)nc2c1c(=O)[nH]c(=O)n2C`, with inactive: > 76.9 µM. Turning to `CC(=O)NC12CC3CC(C1)CC(C(=O)OCC(=O)Nc1ncc(Cl)c(C)c1Cl)(C3)C2`, the Potency is inactive: > 76.9 µM.

As to `C=CCn1c(COc2cccc3cccnc23)nnc1SCC(=O)O`, the Potency was inactive: > 76.9 µM.

On to `c1coc(-c2nn3c(Cn4nnc5ccccc54)nnc3s2)c1`, for which the Potency is inactive: > 76.9 µM. Turning to `Cc1cc(C)nc(N2CCC(C(=O)Nc3ccc4c(c3)CCC4)CC2)n1`, the Potency is inactive: > 76.9 µM. Consider `Cc1cc2c(c(N3CCOCC3)n1)C(=O)OC2`, for which the Potency is inactive: > 76.9 µM.

Turning to `CC(C)(O)c1cn(-c2nonc2N)nn1`, the Potency is inactive: > 76.9 µM. Then `CC1CCCCC1NC(=O)CN1CCN(Cc2ccccc2Cl)C1=O` (centres undefined), with inactive: > 76.9 µM; and `Nc1nc2ccccc2n1CCN1CCCC1`, with inactive: > 76.9 µM; and `COc1ccc(N2CC(C)Cn3c2nc2c3c(=O)n(Cc3ccc(F)cc3)c(=O)n2C)c(OC)c1` (centres undefined), with inactive: > 76.9 µM. Then `O=C(O)c1ccc(NS(=O)(=O)c2cccc3nsnc23)cc1`, with inactive: > 76.9 µM. In the case of `COCc1cc(C)nc2sc3c(=O)oc(C)nc3c12`, the Potency is inactive: > 76.9 µM.

Consider `O=C(Cc1ccccc1)Nc1nnc(-c2cccs2)s1`, for which the Potency is inactive: > 76.9 µM.

In the case of `COc1ccccc1OCC(=O)OCC(=O)NCCN1C(=O)CSC1=O`, the Potency is inactive: > 76.9 µM. With `CN1CCN(C(c2cccnc2)c2ccc3cccnc3c2O)CC1` (centres undefined), the Potency was inactive: > 76.9 µM. The result for `C=CCn1c(SCC(=O)C(C)(C)C)nnc1-c1cccs1` reads inactive: > 76.9 µM; that for `Cc1ccccc1NC(=O)c1ccccc1NC(=O)c1ccco1`, inactive: > 76.9 µM; that for `CCOc1ccccc1N1CC(O)=C(c2nc3ccccc3s2)C1=N`, “inactive”. As to `CCn1c(-c2ccsc2)nc2c1c(=O)[nH]c(=O)n2Cc1ccccc1`, the Potency is inactive: > 76.9 µM. Take `COc1ccc(CNC(=O)CCn2c(=O)oc3ccccc32)cc1`: the Potency is inactive: > 76.9 µM.

Values taken from PubChem BioAssay AID360 (National Center for Advancing Translational Sciences (NCATS), 2006).
